Source: EP0745599A2, “1-(3-Heterocyclylphenyl)-s-triazine-2,4,6-oxo or thiotrione herbicidal agents” (American Cyanamid Company, priority 1995, dated 1996)
At least one read-out could not be matched to a standard name with certainty.

Assays:
Type in all cases: in vivo
Conditions in all cases: rated four to five weeks after treatment
[1] = system: ABUTILON THEOPHRASTI, MEDIC.; assay: Preemergence herbicidal evaluation, ABUTH (Velvetleaf)
Text: (§1) Results of herbicide evaluation are expressed on a rating scale (0-9). The scale is based upon a visual observation of plant stand, vigor, malformation, size, chlorosis and overall plant appearance as compared with a control.
(§2) The preemergence herbicidal activity of the test compounds of the present invention is exemplified by the following tests in which the seeds of a variety of monocotyledonous and dicotyledonous plants are separately mixed with potting soil and planted on top of approximately one inch of soil in separate pint cups. After planting, the cups are sprayed with the selected aqueous acetone solution containing test compound in sufficient quantity to provide the equivalent of about 0.125 to 0.50 kg per hectare of test compound per cup. The treated cups are then placed on greenhouse benches, watered and cared for in accordance with conventional greenhouse procedures. From four to five weeks after treatment, the tests are terminated and each cup is examined and rated according to the rating system provided in Example 42.

[2] = system: SETARIA VIRIDIS, (L) BEAU; assay: Postemergence herbicidal evaluation, SETVI (Foxtail, Green)
In short: (§3)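 Two-week-old seedlings; spray 40 psi, 0.125–0.500 kg/ha in 50/50 acetone/water, 0.5% TWEEN®20. Greenhouse hold 4–5 wk. Visual 0–9 score (stand, vigor, malformation, size, chlorosis, appearance) vs control; repeats averaged.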

GALIUM APARINE = assay: Postemergence herbicidal evaluation, GALAP (Galium)
[3] = system: SETARIA VIRIDIS, (L) BEAU; assay: Preemergence herbicidal evaluation, SETVI (Foxtail, Green)
Text: as §1, §2

[4] = system: AMBROSIA ARTEMISIIFOLIA, L.; assay: Preemergence herbicidal evaluation, AMBEL (Ragweed, Common)
Text: as §1, §2

[5] = system: ECHINOCHLOA CRUS-GALLI, (L) BEAU; assay: Postemergence herbicidal evaluation, ECHCG (Barnyardgrass)
In short: as §3

[6] = system: GLYCINE MAX(L)MERR. CV. WILLIAMS; assay: Postemergence herbicidal evaluation, GLXMAW (Soybean, Williams)
In short: as §3

IPOMOEA SPP. [7] = assay: Postemergence herbicidal evaluation, IPOSS (Morningglory Spp.)
ZEA MAYS L. [8] = assay: Preemergence herbicidal evaluation, ZEAMX (Corn, Field)
Text: as §1, §2

IPOMOEA SPP. [9] = assay: Preemergence herbicidal evaluation, IPOSS (Morningglory Spp.)
Text: as §1, §2

[10] = system: GLYCINE MAX(L)MERR. CV. WILLIAMS; assay: Preemergence herbicidal evaluation, GLXMAW (Soybean, Williams)
Text: as §1, §2

[11] = system: ORYZA SATIVA, L. TEBONNET; assay: Postemergence herbicidal evaluation, ORYSAT (Rice, Tebonnet)
In short: as §3

ZEA MAYS L. [12] = assay: Postemergence herbicidal evaluation, ZEAMX (Corn, Field)
In short: as §3

`CC(C)OC(=O)Cn1c(=O)n(C)c(=O)n(-c2cc(N3C(=O)C4CSCCN4C3=O)c(F)cc2Cl)c1=O` (stereo not drawn) [Compound 12, Isopropyl 3-{2-chloro-4-fluoro-5-[5,6,8,8a-tetrahydro-1,3-dioxo-1H-imidazo[5,1c][1,4]-thiazin-2(3H)-yl]phenyl}tetrahydro-5-methyl-2,4,6-trioxo-s-triazine-1(2H)-acetate] was tested, and the “Herbicide rating (0-9) ABUTH” value ([1]; 0.125 kg/ha) was 5.0, the “Herbicide rating (0-9) ABUTH” value ([1]; 0.250 kg/ha) was 9.0 and the “Herbicide rating (0-9) ABUTH” value ([1]; 0.500 kg/ha) was 9.0. The “Herbicide rating (0-9) SETVI” value ([2]; 0.125 kg/ha) was 2.0, the “Herbicide rating (0-9) SETVI” value ([2]; 0.250 kg/ha) was 3.0 and the “Herbicide rating (0-9) SETVI” value ([2]; 0.500 kg/ha) was 4.0. The “Herbicide rating (0-9) GALAP” value (GALIUM APARINE; 0.125 kg/ha) was 7.0, the “Herbicide rating (0-9) GALAP” value (GALIUM APARINE; 0.250 kg/ha) was 8.0 and the “Herbicide rating (0-9) GALAP” value (GALIUM APARINE; 0.500 kg/ha) was 8.0. For the same compound, the “Herbicide rating (0-9) SETVI” value ([3]; 0.125 kg/ha) was 0.0, the “Herbicide rating (0-9) SETVI” value ([3]; 0.250 kg/ha) was 0.0 and the “Herbicide rating (0-9) SETVI” value ([3]; 0.500 kg/ha) was 3.0. For the same compound, the “Herbicide rating (0-9) AMBEL” value ([4]; 0.125 kg/ha) was 0.0, the “Herbicide rating (0-9) AMBEL” value ([4]; 0.250 kg/ha) was 0.0 and the “Herbicide rating (0-9) AMBEL” value ([4]; 0.500 kg/ha) was 3.0. For the same compound, the “Herbicide rating (0-9) ECHCG” value ([5]; 0.125 kg/ha) was 2.0, the “Herbicide rating (0-9) ECHCG” value ([5]; 0.250 kg/ha) was 3.0 and the “Herbicide rating (0-9) ECHCG” value ([5]; 0.500 kg/ha) was 3.0. For the same compound, the “Herbicide rating (0-9) GLXMAW” value ([6]; 0.125 kg/ha) was 6.5, the “Herbicide rating (0-9) GLXMAW” value ([6]; 0.250 kg/ha) was 5.5 and the “Herbicide rating (0-9) GLXMAW” value ([6]; 0.500 kg/ha) was 6.5. The “Herbicide rating (0-9) IPOSS” value (IPOMOEA SPP. [7]; 0.125 kg/ha) was 7.0, the “Herbicide rating (0-9) IPOSS” value (IPOMOEA SPP. [7]; 0.250 kg/ha) was 9.0 and the “Herbicide rating (0-9) IPOSS” value (IPOMOEA SPP. [7]; 0.500 kg/ha) was 9.0. For the same compound, the “Herbicide rating (0-9) ZEAMX” value (ZEA MAYS L. [8]; 0.125 kg/ha) was 0.0, the “Herbicide rating (0-9) ZEAMX” value (ZEA MAYS L. [8]; 0.250 kg/ha) was 1.0 and the “Herbicide rating (0-9) ZEAMX” value (ZEA MAYS L. [8]; 0.500 kg/ha) was 3.0. For the same compound, the “Herbicide rating (0-9) IPOSS” value (IPOMOEA SPP. [9]; 0.125 kg/ha) was 2.0, the “Herbicide rating (0-9) IPOSS” value (IPOMOEA SPP. [9]; 0.250 kg/ha) was 6.0 and the “Herbicide rating (0-9) IPOSS” value (IPOMOEA SPP. [9]; 0.500 kg/ha) was 4.0. For the same compound, the “Herbicide rating (0-9) GLXMAW” value ([10]; 0.125 kg/ha) was 0.0, the “Herbicide rating (0-9) GLXMAW” value ([10]; 0.250 kg/ha) was 1.0 and the “Herbicide rating (0-9) GLXMAW” value ([10]; 0.500 kg/ha) was 1.0. The “Herbicide rating (0-9) ORYSAT” value ([11]; 0.125 kg/ha) was 3.0, the “Herbicide rating (0-9) ORYSAT” value ([11]; 0.250 kg/ha) was 3.5 and the “Herbicide rating (0-9) ORYSAT” value ([11]; 0.500 kg/ha) was 3.0. For the same compound, the “Herbicide rating (0-9) ZEAMX” value (ZEA MAYS L. [12]; 0.125 kg/ha) was 4.0, the “Herbicide rating (0-9) ZEAMX” value (ZEA MAYS L. [12]; 0.250 kg/ha) was 4.5 and the “Herbicide rating (0-9) ZEAMX” value (ZEA MAYS L. [12]; 0.500 kg/ha) was 5.0.
